Data published in ChEMBL document CHEMBL4888484, “Replenishing the malaria drug discovery pipeline: Screening and hit evaluation of the MMV Hit Generation Library 1 (HGL1) against asexual blood stage Plasmodium falciparum ,using a nano luciferase reporter read-out” (2022).
In all, about 150,000 compounds went through this assay and about 540 (0.36%) showed an effect of 50% or more. The list shows a part of the results.

Each compound was assayed on Plasmodium falciparum (assay: Primary screen in NF54 nanoGlo assay, in single point, at 2uM, 72h; a lower Z score goes with more inhibition). Conditions: timepoint 72 hour.
Assay type: functional, Erythrocyte

Row | SMILES | % Inhibition [%] | Z score
1 | COC[C@H](C)N(C)C(=O)Nc1nncs1 | -6 | 1.18
2 | CC(C)C[C@H]1C(=O)NC(c2cn3cccc(F)c3n2)N1C (stereo partly drawn) | 10 | -1.05
3 | CC(C)(C)OC(=O)NC[C@@H](C(=O)N1CCC1)c1ccccc1 | -10 | 1.64
4 | CCN(Cc1cnn(C)c1)Cc1nc(C(F)(F)F)cs1 | 3 | -0.5
5 | CCCN1C(=O)N[C@@H](CC(=O)N2CCC(CCOC)CC2)C1=O | -11 | 1.36
6 | NC(=O)Nc1ccccc1Br | -7 | 0.94
7 | Cc1cc(C(=O)CN2C(=O)CCC2=O)c(C)n1-c1cccc(Cl)c1 | 10 | -1.79
8 | CCCCN(C)CCNC(=O)c1noc2c1COc1ccccc1-2 | -10 | 1.91
9 | CC(C)(C)OCc1cccc(NC(=O)N2CCn3c(n[nH]c3=O)C2)c1 | -10 | 1
10 | Cc1cc(F)ccc1[C@@H]1CCCN1S(=O)(=O)CC1(C#N)CCCC1 | 26 | -2.93
11 | Cc1nc(COc2cccc3c2OCCO3)oc1C | -4 | 0.5
12 | Cc1nc(Cc2nc(-c3ccc(NC(=O)C(C)(C)C)cc3)cs2)cs1 | -13 | 2.52
13 | CC(=O)N1CCC(C(=O)Nc2ccc(-c3cc[nH]n3)cc2)CC1 | -11 | 1.63
14 | Cc1noc(C2CC2)c1C(=O)N1CCCC[C@@]12CCOC2 | 1 | -0.1
15 | O=C1CC[C@H](NCc2cscn2)CCN1Cc1ccccc1 | 0 | -0.04
16 | O=C(c1cnns1)N1CCN(Cc2ccc(Cl)s2)CC1 | -9 | 1.15
17 | O=C(c1cc(F)c(F)cc1F)N1CCC(n2ccnn2)CC1 | -2 | 0.22
18 | CCC[C@H](O)CN(Cc1ccccc1)Cc1c(C)nn(-c2ccccc2)c1Oc1ccccc1OC | -2 | 0.2
19 | CCS(=O)(=O)C1CN(C(=O)c2cn(-c3ccccc3)c(=O)cc2OC)C1 | -9 | 1.82
20 | Cc1cc2nc(C)c(=O)n(CC(=O)NC[C@H]3CCCO3)c2cc1C | -1 | 0.16
21 | O=C(Cn1c(=O)n(Cc2ccc3c(c2)OCO3)c(=O)c2sccc21)Nc1ccc(Cl)cc1F | 38 | -1.39

Row | SMILES | % Inhibition [%] | Z score
22 | Cn1cc(-c2cc3n(n2)CCC(=O)N3CC(=O)NCCCN2CCOCC2)c2ccccc21 | 3 | -0.54
23 | Cn1c(=O)[nH]cc(CC(=O)N2CC(Oc3ccccc3F)C2)c1=O | -3 | 0.72
24 | O=C(NCC1CCCCC1)C1CCN(Cc2nc3ccccc3[nH]2)CC1 | -18 | 2.68
25 | CC=Cc1ccc(OCC(=O)N(CCOC)c2c(N)n(CCCC)c(=O)[nH]c2=O)c(OC)c1 | -9 | 0.89
26 | CC1(C)CC[C@H](NC(=O)c2cc3c(=O)[nH]cnc3cn2)c2ccccc21 | 3 | -0.59
27 | O=C(c1ccc2ccccc2n1)N1CC[C@H](Cc2nnc(-c3ccccc3)o2)C1 | -19 | 2.77
28 | Cn1nc2n(c1=O)C[C@@H](C(=O)NCc1nc3c(s1)CCCC3)CC2 | -15 | 2.06
29 | COc1ccccc1C(=O)N[C@H](C(=O)NCc1n[nH]c(C)n1)C(C)C | 10 | -1.59
30 | CC(C)CN1CCN(C(=O)c2cn3cc(Cl)ccc3n2)CC1 | -6 | 0.86
31 | Cc1cc(CNc2cc(Cl)ccc2C(=O)N2CCCCC2)no1 | 11 | -1.72
32 | O=C(c1ccc(Cl)cc1-n1cnnn1)N1CC[C@@]2(O)CCCC[C@H]2C1 | -5 | 0.56
33 | CC[C@H]1OCC[C@@H]1NS(=O)(=O)c1cc(C)cs1 | 13 | -1.59
34 | CN(C)C(=O)CCN(Cc1nccn1C)C1CC1 | 3 | -0.6
35 | CCC(F)(F)C(C)(C)CS(=O)(=O)N1CCC[C@H](N(C)C)CC1 | -1 | 0.09
36 | Cc1noc(-c2c(C)sc(C)c2S(=O)(=O)NCc2ccccc2)c1C | -7 | 1.25
37 | O=C(Cn1ncccc1=O)Nc1ccnn1C1CCCC1 | -11 | 2.09
38 | Cc1nc(NC2CC2)sc1C(=O)NC1CCCC1 | -12 | 1.65
39 | CCn1nc(C(=O)NC[C@H](Cc2ccc3ccccc3c2)C(=O)O)ccc1=O | -8 | 0.92
40 | O=C(NCc1cccc(C(=O)N2CCCC2)c1)NC1CCCCC1 | -12 | 1.56
41 | CC(C)Cc1noc(CN(C)[C@@H](C)C(=O)Nc2nccs2)n1 | -5 | 1.04
42 | COc1cc(C)c(S(=O)(=O)N2CCO[C@H](C)[C@H]2C(N)=O)cc1Cl | -3 | 0.45

Row | SMILES | % Inhibition [%] | Z score
43 | CC[C@](C)(NCc1cc2ccccc2s1)c1nc(C)cs1 | -10 | 1.52
44 | Cc1nc2c(c(=O)n1CC(=O)Nc1ccccc1)CCN(Cc1ccccc1)C2 | 31 | -3.52
45 | Cc1ccc(-c2nc(C(=O)N3CCN(Cc4ccc5c(c4)OCO5)CC3)no2)cc1 | -9 | 0.85
46 | Cn1ccnc1[C@@H](CC(=O)NCCC(C)(C)C(=O)O)C(F)(F)F | 17 | -2.03
47 | Cc1nc(CN2CC[C@@]3(CCCN(C(=O)OCC(C)(C)C)C3)C2)c[nH]1 | -3 | 0.66
48 | COc1ccc(-c2cnc3ncnn3c2NCc2cc(F)cc(F)c2)cc1OC | -15 | 2.22
49 | O=C(CC1CCCC1)Nc1cnc2c(c1)CCC2 | -7 | 1.07
50 | Cc1ccc(CN(c2ccc(C(=O)N3CCCCCC3)cc2)S(C)(=O)=O)cc1 | 1 | -0.14
51 | Cc1cccc(C2c3cc(OC(C)C(=O)NCc4cccc(F)c4)ccc3CCN2C(=O)c2ccccc2)c1 (stereo not drawn) | -23 | 2.18
52 | COCc1nc(C)c(CNC(=O)[C@]2(C)CCCO2)s1 | 5 | -0.64
53 | CC[C@H](NC(=O)c1cc(C)ccc1OCCN)c1nccs1 | -6 | 1.29
54 | CC1CC(C)CN(S(=O)(=O)c2ccc(F)c(C(=O)NC(c3ccccc3)c3ccccc3)c2)C1 (stereo not drawn) | 2 | -0.19
55 | COc1ccc([C@@]2(CC(=O)N(C)C3CCOCC3)CC(=O)N(C3CCCC3)C2=O)cc1 | 12 | -1.57
56 | CCCCCNc1ccccc1C(=O)O | -14 | 1.44
57 | CN1CCCC2(CCN(C(=O)NCCc3ccccc3)CC2)[C@H]1C(=O)N1CCCC1 | -4 | 0.84
58 | O=C(NCc1c(F)cccc1Cl)[C@H]1CC(=O)N(Cc2ccncc2)C1 | 0 | -0.05
59 | COc1cccc(CN2CC[C@@](C)(O)[C@H](N3CCCC3)C2)c1OC | 7 | -0.91
60 | O=C(Nc1nc(CC2CC2)ns1)c1cnn(CCF)c1 | -7 | 0.89
61 | O=C(NC[C@H](O)c1ccc2ccccc2c1)c1cc(F)c(O)c(F)c1 | -17 | 2.09
62 | Cc1nc(N2CCCC2)c2c(C(=O)Nc3cc(F)ccc3F)c(C)oc2n1 | -6 | 0.87
63 | Cc1ccc2nc3c(n2c1)[C@@H](c1cc(Cl)c(C)c(Cl)c1)CC(=O)NC3 | 3 | -0.62

Row | SMILES | % Inhibition [%] | Z score
64 | O=C(c1cc2ccccc2cc1O)N1CCC(CO)(CN2CCCC2)CC1 | 11 | -1.1
65 | COc1ccc(Cn2nc(C)cc2NC(=O)NCc2nccn2C)cc1OC | -7 | 0.98
66 | C[C@@H](CCc1ccccc1)CNCc1ccc(C(=O)O)c(C2CC2)n1 | -12 | 1.08
67 | CCCCC(=O)c1ccccc1C(=O)c1ccc2[nH]c(NC(=O)OC)nc2c1 | -17 | 2.14
68 | COc1nc(C)c(C(=O)N(C)Cc2nc3ccccc3c(=O)[nH]2)s1 | -9 | 1.12
69 | Cc1ccnc(NS(=O)(=O)c2cc(-c3nc(C)c(C(=O)N4CCC(C)CC4)s3)n(C)c2C)c1 | -13 | 1.42
70 | CN(CCCNC(=O)c1c(N2CCCC2=O)c2cc(F)ccc2n1C)C1CCCCC1 | 0 | -0.02
71 | c1nc(NCc2cn3c(n2)CCCC3)c2sccc2n1 | -12 | 1.53
72 | Cc1nonc1CC(=O)NCCc1cnn(-c2ccccc2)c1 | -4 | 0.5
73 | CCc1ccc([C@@H]2C[C@H](c3ccccc3)n3nnnc3N2)cc1 | 1 | -0.25
74 | C=C(C)CN(CC)C(=O)[C@@H]1C[C@H](NC(=O)C2CCCCC2)CN1C | -3 | 0.4
75 | COCc1ncc(C)n1CC1CN(C(=O)C2CC=CC2)C1 | 8 | -1.08
76 | C[C@@H](Cc1nnc(NC(=O)c2ccco2)s1)c1ccccc1 | -6 | 1.09
77 | CCOc1cc2c(cc1CNCCCc1csc(N)n1)CCC2 | -2 | 0.34
78 | O=C(NCc1ccccc1)c1cn2ccncc2n1 | -7 | 0.8
79 | COCCOc1cccc(C(=O)N[C@H](C(=O)OC(C)(C)C)c2ccccc2)c1 | -4 | 0.8
80 | O=C(NCC(O)c1ccccc1Cl)[C@H]1CCCCN1 (stereo partly drawn) | -2 | 0.28
81 | CCC(CC)C(=O)Nc1cc(C(=O)OC)cc(C(=O)OC)c1 | 3 | -0.4
82 | CN(CC1CCC1)C(=O)c1sccc1C1CC1 | -7 | 0.96
83 | O=C(CCc1ccco1)NCC1(c2ccccc2Cl)CCOCC1 | -17 | 1.54
84 | Cc1sc([C@@H]2CCCO2)nc1-c1ccc2c(c1)CC(=O)N2C | 3 | -0.33
